# According to the supplement of paper PMC8728848:
# The other results are listed elsewhere or left out.
# B1: PfulAvr4 2 (Pseudocercospora fuligena) (protein)
# chain: HHHHHHDYKDDDDKAKPIKPFACPPKDFTTTKCQGPVDCLYANPLSCLGYIQCVCDDDACSTATPYAKSCPTGLAWVEKLKRCDGIKKSACPKKMYEGS
# Tests used:
# Test in all cases: glycan array binding signal (z-score within array); higher = stronger binding
# Settings in all cases: glycan notation: IUPAC condensed, linker removed
# [1] = biological target: Fuc(a1-2)Gal6S(b1-3)GlcNAc6S
# How it was run: (§1)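 The binding signal is a Z-score computed within each array. Data were drawn from 3228 arrays in the Consortium for Functional Glycomics database, restricted to those with a known protein sequence. Scores were averaged over arrays of the same protein sequence at different concentrations or buffers, and over linkers, and negative values can be taken as non-binding.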
# Fuc(a1-2)Gal6S(b1-4)Glc = biological target: Fuc(a1-2)Gal6S(b1-4)Glc
# How it was run: as §1
# [2] = biological target: Fuc(a1-2)Gal6S(b1-4)Glc6S
# How it was run: as §1
# Fuc(a1-2)[Gal(a1-3)]Gal = biological target: Fuc(a1-2)[Gal(a1-3)]Gal
# How it was run: as §1
# [3] = biological target: Fuc(a1-2)[Gal(a1-3)]Gal(b1-3)GalNAc
# How it was run: as §1
# [4] = biological target: Fuc(a1-2)[Gal(a1-3)]Gal(b1-3)GalNAc(b1-3)Gal(a1-4)Gal(b1-4)Glc
# How it was run: as §1
# [5] = biological target: Fuc(a1-2)[Gal(a1-3)]Gal(b1-3)GlcNAc
# How it was run: as §1
# [6] = biological target: Fuc(a1-2)[Gal(a1-3)]Gal(b1-3)GlcNAc(b1-2)Man(a1-3)[Fuc(a1-2)[Gal(a1-3)]Gal(b1-3)GlcNAc(b1-2)Man(a1-6)]Man(b1-4)GlcNAc(b1-4)GlcNAc
# How it was run: as §1
# [7] = biological target: Fuc(a1-2)[Gal(a1-3)]Gal(b1-3)GlcNAc(b1-2)Man(a1-3)[Fuc(a1-2)[Gal(a1-3)]Gal(b1-3)GlcNAc(b1-2)Man(a1-6)]Man(b1-4)GlcNAc(b1-4)[Fuc(a1-6)]GlcNAc
# How it was run: as §1
# [8] = biological target: Fuc(a1-2)[Gal(a1-3)]Gal(b1-3)GlcNAc(b1-3)GalNAc
# How it was run: as §1
# [9] = biological target: Fuc(a1-2)[Gal(a1-3)]Gal(b1-3)GlcNAc(b1-6)GalNAc
# How it was run: as §1
# [10] = biological target: Fuc(a1-2)[Gal(a1-3)]Gal(b1-4)Glc
# How it was run: as §1
# [11] = biological target: Fuc(a1-2)[Gal(a1-3)]Gal(b1-4)GlcNAc
# How it was run: as §1
# [12] = biological target: Fuc(a1-2)[Gal(a1-3)]Gal(b1-4)GlcNAc(b1-2)Man
# How it was run: as §1
# [13] = biological target: Fuc(a1-2)[Gal(a1-3)]Gal(b1-4)GlcNAc(b1-2)Man(a1-3)[Fuc(a1-2)[Gal(a1-3)]Gal(b1-4)GlcNAc(b1-2)Man(a1-6)]Man(b1-4)GlcNAc(b1-4)GlcNAc
# How it was run: as §1
# [14] = biological target: Fuc(a1-2)[Gal(a1-3)]Gal(b1-4)GlcNAc(b1-2)Man(a1-3)[Fuc(a1-2)[Gal(a1-3)]Gal(b1-4)GlcNAc(b1-2)Man(a1-6)]Man(b1-4)GlcNAc(b1-4)[Fuc(a1-6)]GlcNAc
# How it was run: as §1
# [15] = biological target: Fuc(a1-2)[Gal(a1-3)]Gal(b1-4)GlcNAc(b1-3)GalNAc
# How it was run: as §1
# [16] = biological target: Fuc(a1-2)[Gal(a1-3)]Gal(b1-4)GlcNAc(b1-3)[Fuc(a1-2)[Gal(a1-3)]Gal(b1-4)GlcNAc(b1-6)]GalNAc
# How it was run: as §1
# [17] = biological target: Fuc(a1-2)[Gal(a1-3)]Gal(b1-4)GlcNAc(b1-6)GalNAc
# How it was run: as §1
# [18] = biological target: Fuc(a1-2)[Gal(a1-3)]Gal(b1-4)[Fuc(a1-3)]Glc
# How it was run: as §1
# [19] = biological target: Fuc(a1-2)[Gal(a1-3)]Gal(b1-4)[Fuc(a1-3)]GlcNAc
# How it was run: as §1
# [20] = biological target: Fuc(a1-2)[Gal(a1-3)]Gal(b1-4)[Fuc(a1-3)]GlcNAc(b1-3)GalNAc
# How it was run: as §1
# [21] = biological target: Fuc(a1-2)[Gal(a1-4)]Gal(b1-4)GlcNAc
# How it was run: as §1
# [22] = biological target: Fuc(a1-2)[GalNAc(a1-3)]Gal
# How it was run: as §1
# [23] = biological target: Fuc(a1-2)[GalNAc(a1-3)]Gal(b1-3)GalNAc(a1-3)[Fuc(a1-2)]Gal(b1-4)GlcNAc
# How it was run: as §1
# [24] = biological target: Fuc(a1-2)[GalNAc(a1-3)]Gal(b1-3)GalNAc(b1-3)Gal(a1-4)Gal(b1-4)Glc
# How it was run: as §1
# [25] = biological target: Fuc(a1-2)[GalNAc(a1-3)]Gal(b1-3)GlcNAc
# How it was run: as §1
# [26] = biological target: Fuc(a1-2)[GalNAc(a1-3)]Gal(b1-3)GlcNAc(b1-2)Man(a1-3)[Fuc(a1-2)[GalNAc(a1-3)]Gal(b1-3)GlcNAc(b1-2)Man(a1-6)]Man(b1-4)GlcNAc(b1-4)GlcNAc
# How it was run: as §1
# [27] = biological target: Fuc(a1-2)[GalNAc(a1-3)]Gal(b1-3)GlcNAc(b1-2)Man(a1-3)[Fuc(a1-2)[GalNAc(a1-3)]Gal(b1-3)GlcNAc(b1-2)Man(a1-6)]Man(b1-4)GlcNAc(b1-4)[Fuc(a1-6)]GlcNAc
# How it was run: as §1
# [28] = biological target: Fuc(a1-2)[GalNAc(a1-3)]Gal(b1-3)GlcNAc(b1-3)GalNAc
# How it was run: as §1
# [29] = biological target: Fuc(a1-2)[GalNAc(a1-3)]Gal(b1-3)GlcNAc(b1-6)GalNAc
# How it was run: as §1
# [30] = biological target: Fuc(a1-2)[GalNAc(a1-3)]Gal(b1-4)Glc
# How it was run: as §1
# [31] = biological target: Fuc(a1-2)[GalNAc(a1-3)]Gal(b1-4)GlcNAc
# How it was run: as §1
# [32] = biological target: Fuc(a1-2)[GalNAc(a1-3)]Gal(b1-4)GlcNAc(b1-2)Man
# How it was run: as §1
# [33] = biological target: Fuc(a1-2)[GalNAc(a1-3)]Gal(b1-4)GlcNAc(b1-2)Man(a1-3)[Fuc(a1-2)[GalNAc(a1-3)]Gal(b1-4)GlcNAc(b1-2)Man(a1-6)]Man(b1-4)GlcNAc(b1-4)GlcNAc
# How it was run: as §1
# [34] = biological target: Fuc(a1-2)[GalNAc(a1-3)]Gal(b1-4)GlcNAc(b1-2)Man(a1-3)[Fuc(a1-2)[GalNAc(a1-3)]Gal(b1-4)GlcNAc(b1-2)Man(a1-6)]Man(b1-4)GlcNAc(b1-4)[Fuc(a1-6)]GlcNAc
# How it was run: as §1
# [35] = biological target: Fuc(a1-2)[GalNAc(a1-3)]Gal(b1-4)GlcNAc(b1-3)Gal(b1-4)GlcNAc
# How it was run: as §1
# [36] = biological target: Fuc(a1-2)[GalNAc(a1-3)]Gal(b1-4)GlcNAc(b1-3)Gal(b1-4)GlcNAc(b1-3)Gal(b1-4)GlcNAc
# How it was run: as §1
# [37] = biological target: Fuc(a1-2)[GalNAc(a1-3)]Gal(b1-4)GlcNAc(b1-3)GalNAc
# How it was run: as §1
# [38] = biological target: Fuc(a1-2)[GalNAc(a1-3)]Gal(b1-4)GlcNAc(b1-3)[Fuc(a1-2)[GalNAc(a1-3)]Gal(b1-4)GlcNAc(b1-6)]GalNAc
# How it was run: as §1
# [39] = biological target: Fuc(a1-2)[GalNAc(a1-3)]Gal(b1-4)GlcNAc(b1-6)GalNAc
# How it was run: as §1
# [40] = biological target: Fuc(a1-2)[GalNAc(a1-3)]Gal(b1-4)[Fuc(a1-3)]GlcNAc
# How it was run: as §1
# [41] = biological target: Fuc(a1-2)[GalNAc(a1-3)]Gal(b1-4)[Fuc(a1-3)]GlcNAc(b1-3)GalNAc
# How it was run: as §1
# [42] = biological target: Fuc(a1-2)[GalNAc(a1-4)]Gal(b1-4)GlcNAc
# How it was run: as §1
# [43] = biological target: Fuc(a1-2)[GalNAc(b1-3)]Gal
# How it was run: as §1
binder,measurement,setting,value
B1,glycan array binding signal (z-score),[1],0.908
same,glycan array binding signal (z-score),Fuc(a1-2)Gal6S(b1-4)Glc,-0.291
same,glycan array binding signal (z-score),[2],-0.237
same,glycan array binding signal (z-score),Fuc(a1-2)[Gal(a1-3)]Gal,-0.18
same,glycan array binding signal (z-score),[3],-0.302
same,glycan array binding signal (z-score),[4],-0.378
same,glycan array binding signal (z-score),[5],-0.268
same,glycan array binding signal (z-score),[6],-0.082
same,glycan array binding signal (z-score),[7],1.76
same,glycan array binding signal (z-score),[8],-0.156
same,glycan array binding signal (z-score),[9],-0.076
same,glycan array binding signal (z-score),[10],-0.269
same,glycan array binding signal (z-score),[11],-0.336
same,glycan array binding signal (z-score),[12],-0.046
same,glycan array binding signal (z-score),[13],-0.273
same,glycan array binding signal (z-score),[14],0.493
same,glycan array binding signal (z-score),[15],-0.381
same,glycan array binding signal (z-score),[16],0.503
same,glycan array binding signal (z-score),[17],-0.178
same,glycan array binding signal (z-score),[18],-0.275
same,glycan array binding signal (z-score),[19],-0.192
same,glycan array binding signal (z-score),[20],-0.19
same,glycan array binding signal (z-score),[21],-0.039
same,glycan array binding signal (z-score),[22],-0.343
same,glycan array binding signal (z-score),[23],3.28
same,glycan array binding signal (z-score),[24],0.318
same,glycan array binding signal (z-score),[25],0.123
same,glycan array binding signal (z-score),[26],0.356
same,glycan array binding signal (z-score),[27],-0.42
same,glycan array binding signal (z-score),[28],0.502
same,glycan array binding signal (z-score),[29],-0.429
same,glycan array binding signal (z-score),[30],-0.327
same,glycan array binding signal (z-score),[31],-0.313
same,glycan array binding signal (z-score),[32],-0.308
same,glycan array binding signal (z-score),[33],-0.305
same,glycan array binding signal (z-score),[34],0.829
same,glycan array binding signal (z-score),[35],-0.368
same,glycan array binding signal (z-score),[36],-0.243
same,glycan array binding signal (z-score),[37],-0.273
same,glycan array binding signal (z-score),[38],-0.307
same,glycan array binding signal (z-score),[39],-0.376
same,glycan array binding signal (z-score),[40],-0.088
same,glycan array binding signal (z-score),[41],-0.227
same,glycan array binding signal (z-score),[42],-0.363
same,glycan array binding signal (z-score),[43],-0.224
